# According to the supplement of paper PMC8728848:
# This is one part of the list.
# B1: MpL2 (Macrolepiota procera) (protein)
# chain: MSTQVSSGQTYKITNVKAGTVIDLSGEDNKSIIGYPYHSGKNQQWTFNWTGKAWTLRSASSGSYLGIEGTPADGTRLVAVNDPFEWHIWRDEANENAFRIFVPFTNYNLRLSGYGDTTPGTPVQLWWTWEGLHQTWTIDRP
# How the values were obtained:
# Test in all cases: glycan array binding signal (z-score within array); higher = stronger binding
# Details in all cases: glycan notation: IUPAC condensed, linker removed; mutation: D109R
# Fuc(a1-2)Gal = biological target: Fuc(a1-2)Gal
# Outline: (§1)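 Glycan array binding is given as a within-array Z-score, which can be read as non-binding when negative. The arrays, 3228 of them, came from the Consortium for Functional Glycomics database and were retained only where the protein sequence was available. Z-scores were averaged across arrays of the same protein sequence at different concentrations or buffers and across linkers.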
# Fuc(a1-2)Gal(b1-3)GalNAc = biological target: Fuc(a1-2)Gal(b1-3)GalNAc
# Outline: as §1
# [1] = biological target: Fuc(a1-2)Gal(b1-3)GalNAc(a1-3)[Fuc(a1-2)]Gal(b1-4)Glc
# Outline: as §1
# [2] = biological target: Fuc(a1-2)Gal(b1-3)GalNAc(a1-3)[Fuc(a1-2)]Gal(b1-4)GlcNAc
# Outline: as §1
# [3] = biological target: Fuc(a1-2)Gal(b1-3)GalNAc(b1-3)Gal
# Outline: as §1
# [4] = biological target: Fuc(a1-2)Gal(b1-3)GalNAc(b1-3)Gal(a1-4)Gal(b1-4)Glc
# Outline: as §1
# [5] = biological target: Fuc(a1-2)Gal(b1-3)GalNAc(b1-4)[Neu5Ac(a2-3)]Gal(b1-4)Glc
# Outline: as §1
# Fuc(a1-2)Gal(b1-3)GlcNAc = biological target: Fuc(a1-2)Gal(b1-3)GlcNAc
# Outline: as §1
# [6] = biological target: Fuc(a1-2)Gal(b1-3)GlcNAc(b1-2)Man(a1-3)[Fuc(a1-2)Gal(b1-3)GlcNAc(b1-2)Man(a1-6)]Man(b1-4)GlcNAc(b1-4)GlcNAc
# Outline: as §1
# [7] = biological target: Fuc(a1-2)Gal(b1-3)GlcNAc(b1-2)Man(a1-3)[Fuc(a1-2)Gal(b1-3)GlcNAc(b1-2)Man(a1-6)]Man(b1-4)GlcNAc(b1-4)[Fuc(a1-6)]GlcNAc
# Outline: as §1
# [8] = biological target: Fuc(a1-2)Gal(b1-3)GlcNAc(b1-3)Gal(b1-4)Glc
# Outline: as §1
# [9] = biological target: Fuc(a1-2)Gal(b1-3)GlcNAc(b1-3)GalNAc
# Outline: as §1
# [10] = biological target: Fuc(a1-2)Gal(b1-3)GlcNAc(b1-3)[Fuc(a1-2)Gal(b1-3)GlcNAc(b1-6)]GalNAc
# Outline: as §1
# [11] = biological target: Fuc(a1-2)Gal(b1-3)GlcNAc(b1-3)[Gal(b1-4)GlcNAc(b1-6)]Gal(b1-4)Glc
# Outline: as §1
# [12] = biological target: Fuc(a1-2)Gal(b1-3)GlcNAc(b1-3)[Neu5Ac(a2-6)Gal(b1-4)GlcNAc(b1-6)]Gal(b1-4)Glc
# Outline: as §1
# [13] = biological target: Fuc(a1-2)Gal(b1-3)GlcNAc6S
# Outline: as §1
# [14] = biological target: Fuc(a1-2)Gal(b1-3)[Fuc(a1-4)]GlcNAc
# Outline: as §1
# [15] = biological target: Fuc(a1-2)Gal(b1-3)[Fuc(a1-4)]GlcNAc(b1-2)Man(a1-3)[Fuc(a1-2)Gal(b1-3)[Fuc(a1-4)]GlcNAc(b1-2)Man(a1-3)]Man(b1-4)GlcNAc(b1-4)GlcNAc
# Outline: as §1
# [16] = biological target: Fuc(a1-2)Gal(b1-3)[Fuc(a1-4)]GlcNAc(b1-2)Man(a1-3)[Fuc(a1-2)Gal(b1-3)[Fuc(a1-4)]GlcNAc(b1-2)Man(a1-6)]Man(b1-4)GlcNAc(b1-4)[Fuc(a1-6)]GlcNAc(b1-4)[Fuc(a1-6)]GlcNAc
# Outline: as §1
# [17] = biological target: Fuc(a1-2)Gal(b1-3)[Fuc(a1-4)]GlcNAc(b1-3)[Fuc(a1-3)[Gal(b1-4)]GlcNAc(b1-6)]Gal(b1-4)Glc
# Outline: as §1
# [18] = biological target: Fuc(a1-2)Gal(b1-3)[Fuc(a1-4)]GlcNAc(b1-3)[Gal(b1-4)GlcNAc(b1-6)]Gal(b1-4)Glc
# Outline: as §1
# [19] = biological target: Fuc(a1-2)Gal(b1-4)Fuc(a1-3)]GlcNAc(b1-2)Man(a1-3)[Fuc(a1-2)Gal(b1-4)[Fuc(a1-3)]GlcNAc(b1-2)Man(a1-6)]Man(b1-4)GlcNAc(b1-4)GlcNAc
# Outline: as §1
# Fuc(a1-2)Gal(b1-4)Glc = biological target: Fuc(a1-2)Gal(b1-4)Glc
# Outline: as §1
# Fuc(a1-2)Gal(b1-4)Glc6S = biological target: Fuc(a1-2)Gal(b1-4)Glc6S
# Outline: as §1
# Fuc(a1-2)Gal(b1-4)GlcNAc = biological target: Fuc(a1-2)Gal(b1-4)GlcNAc
# Outline: as §1
# [20] = biological target: Fuc(a1-2)Gal(b1-4)GlcNAc(b1-2)Man
# Outline: as §1
# [21] = biological target: Fuc(a1-2)Gal(b1-4)GlcNAc(b1-2)Man(a1-3)[Fuc(a1-2)Gal(b1-4)GlcNAc(b1-2)Man(a1-6)]Man(b1-4)GlcNAc(b1-4)GlcNAc
# Outline: as §1
# [22] = biological target: Fuc(a1-2)Gal(b1-4)GlcNAc(b1-2)Man(a1-3)[Fuc(a1-2)Gal(b1-4)GlcNAc(b1-2)Man(a1-6)]Man(b1-4)GlcNAc(b1-4)[Fuc(a1-6)]GlcNAc
# Outline: as §1
# [23] = biological target: Fuc(a1-2)Gal(b1-4)GlcNAc(b1-2)[Fuc(a1-2)Gal(b1-4)GlcNAc(b1-4)]Man(a1-3)[Fuc(a1-2)Gal(b1-4)GlcNAc(b1-2)Man(a1-6)]Man(b1-4)GlcNAc(b1-4)GlcNAc
# Outline: as §1
# [24] = biological target: Fuc(a1-2)Gal(b1-4)GlcNAc(b1-3)Gal(b1-4)GlcNAc
# Outline: as §1
binder,measurement,setting,value
B1,glycan array binding signal (z-score),Fuc(a1-2)Gal,-0.251
same,glycan array binding signal (z-score),Fuc(a1-2)Gal(b1-3)GalNAc,-0.246
same,glycan array binding signal (z-score),[1],-0.245
same,glycan array binding signal (z-score),[2],-0.263
same,glycan array binding signal (z-score),[3],-0.24
same,glycan array binding signal (z-score),[4],-0.257
same,glycan array binding signal (z-score),[5],-0.259
same,glycan array binding signal (z-score),Fuc(a1-2)Gal(b1-3)GlcNAc,-0.267
same,glycan array binding signal (z-score),[6],-0.212
same,glycan array binding signal (z-score),[7],-0.262
same,glycan array binding signal (z-score),[8],-0.257
same,glycan array binding signal (z-score),[9],-0.267
same,glycan array binding signal (z-score),[10],-0.226
same,glycan array binding signal (z-score),[11],-0.17
same,glycan array binding signal (z-score),[12],-0.235
same,glycan array binding signal (z-score),[13],-0.247
same,glycan array binding signal (z-score),[14],-0.259
same,glycan array binding signal (z-score),[15],-0.244
same,glycan array binding signal (z-score),[16],-0.251
same,glycan array binding signal (z-score),[17],-0.228
same,glycan array binding signal (z-score),[18],-0.099
same,glycan array binding signal (z-score),[19],-0.148
same,glycan array binding signal (z-score),Fuc(a1-2)Gal(b1-4)Glc,-0.245
same,glycan array binding signal (z-score),Fuc(a1-2)Gal(b1-4)Glc6S,-0.24
same,glycan array binding signal (z-score),Fuc(a1-2)Gal(b1-4)GlcNAc,-0.255
same,glycan array binding signal (z-score),[20],-0.267
same,glycan array binding signal (z-score),[21],-0.248
same,glycan array binding signal (z-score),[22],-0.232
same,glycan array binding signal (z-score),[23],-0.244
same,glycan array binding signal (z-score),[24],-0.273
